Measured values as given in the supplement of paper PMC3334620.
Whole data set: some 33,000 sequences, median “E-score (-0.5 to 0.5)” near -0.017, cut for the highest 2% near 0.3. This is one part of the list.

What follows are sequences tested against T1, Sut1 (UniProt P53032) (assay: PBM E-score (8-mer binding enrichment) (E-score (-0.5 to 0.5)); higher = stronger / more preferred TF binding; most listed sequences are background and not binding sites). Details: protein concentration: 200 nM; construct: GST-full length.
T1 sequence: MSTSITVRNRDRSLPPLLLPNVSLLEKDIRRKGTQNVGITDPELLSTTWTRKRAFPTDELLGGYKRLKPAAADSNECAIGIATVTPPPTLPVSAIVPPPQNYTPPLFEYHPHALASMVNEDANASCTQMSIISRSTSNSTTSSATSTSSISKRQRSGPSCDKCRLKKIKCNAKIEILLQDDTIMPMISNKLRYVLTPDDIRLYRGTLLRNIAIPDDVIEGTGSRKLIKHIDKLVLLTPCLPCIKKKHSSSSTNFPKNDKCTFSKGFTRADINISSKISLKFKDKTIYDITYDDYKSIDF
Protocol: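 Universal 'all 10-mer' protein binding microarrays (Agilent AMADID 015681) probed with GST-tagged S. cerevisiae TFs (full-length or DBD) made by in vitro transcription/translation (PURExpress), about 100-200 nM. Bound TF was detected with fluorescent anti-GST. Each ungapped 8-mer (which stands for itself and its reverse complement) is scored by the PBM enrichment score (E-score), a modified Wilcoxon-Mann-Whitney statistic from -0.5 to +0.5, computed with the Universal PBM Analysis Suite. Scale: above 0.35 generally sequence-specific binding.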

Sequence | PBM E-score
GGTTTTTA | 0.12
AGTTGGGC | 0.042
GACCGAAA | 0.172
ACCGTAAG | 0.113
CCGCGGGA | 0.0493
ATGGGCTA | -0.0597
CCGGAGGA | 0.259
ACTAACTA | 0.172
CAAAAGTA | 0.197
AAGTCTCG | -0.138
TCTTTTAA | 0.205
CTCTCCAA | 0.0481
CCGTTGAG | 0.116
ATGGCACA | -0.0342
TCATGCCA | -0.0536
CTATGGCA | -0.254
AGGCGGTG | -0.292
CAGCCCTC | -0.298
CCTCTGCA | -0.0906
ACTAGCCG | -0.192
CCAACCAA | -0.152
ACACGGCC | -0.203
CCTACGAC | -0.124
CGCTGAGC | -0.198
TCGTAAAA | 0.216

Sequence | PBM E-score
ATAATTTG | 0.249
ACGCCACC | -0.251
CGATTATC | 0.0561
AAACAACA | 0.167
TCTGAAGA | -0.183
TCTCTGCA | -0.223
AAGTTGTA | 0.0914
CGGGGATA | 0.157
CCACATCG | -0.108
AAGGGTCG | 0.0244
GGCTGTAA | -0.255
AGGCATTA | -0.116
CATCGACG | -0.192
CGCATCCA | -0.182
GTAGTGAC | 0.14
GCTCGATA | -0.105
AGATCTCA | 0.0178
CGGGGTCC | 0.0747
GAGAACGA | 0.0305
GCCGTTGA | 0.0889
GGCCATGA | -0.0124
GTTGTACA | 0.122
GCTTATGA | -0.0528
AGGTGTTA | -0.0885
ACTGTCAC | 0.0213

Sequence | PBM E-score
CAGGGTTA | -0.283
AGACATCA | -0.176
CGACGTCC | -0.0918
ATAGCTAC | 0.0547
ACGACGCT | -0.155
GCTCGAGA | -0.13
CCCGTTAA | -0.176
ACAATAAA | 0.135
AACATTGG | -0.112
TCACTGAA | 0.0412
AAAACTCG | 0.199
CATCTCTC | -0.124
CACCTCGA | 0.182
ACTCAAAA | 0.0628
AGTCGTTC | -0.0566
AGATGGAT | -0.146
ATTAGAGG | -0.173
CCTGCGCC | -0.228
ATTCTTAC | 0.245
CCCAGGTC | -0.312
ATATAGAC | 0.19
CACCGTAA | 0.0107
CCCCAGAC | -0.282
ACGCAACG | 0.187
GGAAATAC | 0.195

Sequence | PBM E-score
AGCGTTAC | -0.07
AGAACGGA | 0.217
AGTCCGAC | 0.477
ATGGAGAA | 0.108
ATCCGTAG | -0.0423
TAAGATGA | 0.00586
CTGCAATC | 0.0569
GACAATAC | 0.163
CTGTCAGA | -0.137
CCTCGACA | -0.288
CTACAGTA | -0.0655
CTCAGACC | -0.0343
AGTAATAT | 0.312
CAGCCACC | -0.206
GTGAGGTA | -0.0275
CAGGGCTC | -0.171
CACAAAAG | -0.085
CTAATCGC | 0.00398
CGAGAAAA | 0.188
AAGAAGCA | 0.0425
GCGCTACC | -0.213
TTATCAAA | 0.256
AAGACGCT | -0.26
GCGAGGCA | -0.0631
TATGAACA | 0.0917

Sequence | PBM E-score
AAATGGAA | -0.0215
ATTTAATA | 0.265
CCGCAAGG | 0.00491
ATTGCGGA | 0.25
GAGTCCAC | -0.108
CTAACGCA | -0.0867
CGTAGCGA | 0.0233
ACTCGAAT | 0.0159
CAGCTTCA | -0.0395
TCAGCGAA | 0.039
CACACGAG | -0.284
ATTTTGTA | 0.318
AAACACGA | 0.227
ATTCTCCG | 0.409
AGATTATA | 0.0862
CGCGACCA | -0.098
GGTGGGTA | -0.0653
ATCCTTCG | 0.0447
CACGATTA | 0.0689
AAAACTGA | 0.12
AGTCTGAC | -0.143
GATGGCAC | -0.208
CTTGAAGC | -0.0614
GAACTCAC | -0.0282
ATAGGCGC | -0.101

Sequence | PBM E-score
AGGAAAGC | -0.00919
ACTAAAGT | 0.0611
CGACAATC | 0.0754
ATTCCAGC | -0.0722
ACCCCTAG | -0.248
ACGTATAA | 0.209
CCCCGTCA | -0.197
GAATTTGC | 0.173
GGTGAGAC | -0.123
CGGATGCA | -0.0215
AGTCTTCC | -0.0553
AACTGCAA | -0.0121
ATGTTCCC | -0.213
AGCACCAC | -0.312
CATAAAGA | 0.209
CTACGAAA | -0.116
AATACCGT | 0.0591
CTCTGACA | -0.112
TCAGTACA | 0.033
GCCGTGCC | -0.175
CCCGGACC | 0.339
CCGCGGAA | 0.253
CACCGTGC | -0.263
GAATCGGA | 0.376
CTAGTCCA | -0.129

Sequence | PBM E-score
CCCGACCG | -0.177
CGAAGGGA | -0.13
CGGTCTCC | 0.0266
ACGATACG | -0.0892
GGCAACGA | 0.0792
CAAAGTGA | 0.0886
CAACCCCA | -0.156
CAGACACC | -0.104
AGTTTGAT | 0.218
ATGTCAAA | 0.126
AAACACTT | 0.00605
GACACTTA | -0.13
GCTGCAGA | -0.0669
AACGCGAG | 0.0583
TAGGATCA | -0.108
ACACGCAA | -0.0558
GCAACCCA | -0.123
GCCCCGGA | 0.29
AGTGATCA | -0.0769
AGACGTAT | 0.0319
GGCGCACC | -0.271
CCAAACCA | 0.0126
